# Measured values as given in PubChem BioAssay AID1346428 (National Center for Advancing Translational Sciences (NCATS), 2018).
# Where “and” joins values, the source holds several entries; their conditions need not be identical. Identical values can stand only once. About 1,200 (2.5%) of roughly 48,000 compounds were called active. Inconclusive results (about 2%) are left out.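 Rule for the calls: active = activation of at least 60% and not above a set upper limit (about 1 call in 100 departs from these limits); inconclusive = activation of 40% to 60%, or above that upper limit; inactive = activation under 40%.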 This is one part of the list.
# Target: Probable G-protein coupled receptor 32 (Homo sapiens) (UniProt O75388)
# Sequence of UniProt O75388 (O75388 whole entry, looked up): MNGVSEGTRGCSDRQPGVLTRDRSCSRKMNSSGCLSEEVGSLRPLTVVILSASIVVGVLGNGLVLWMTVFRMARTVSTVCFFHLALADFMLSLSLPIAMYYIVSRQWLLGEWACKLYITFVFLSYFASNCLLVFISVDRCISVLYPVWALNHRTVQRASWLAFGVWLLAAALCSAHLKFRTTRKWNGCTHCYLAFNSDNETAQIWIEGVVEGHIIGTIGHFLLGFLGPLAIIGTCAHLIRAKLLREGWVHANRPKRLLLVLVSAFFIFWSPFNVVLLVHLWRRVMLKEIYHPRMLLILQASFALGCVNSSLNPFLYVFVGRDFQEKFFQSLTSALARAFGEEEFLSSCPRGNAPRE
# Test: qHTS for Agonists of Human Resolvin D1 Receptor DRV1; note: 0% is about no effect
# Details: CHO-K1 GPR32 beta-arrestin PathHunter luminescence, 90 min; at 76.9 µM; hits give high values; zero percent set by DMSO-only wells
# Outline: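 PathHunter beta-arrestin recruitment in CHO-K1 cells stably expressing ProLink-tagged GPR32. Cells were exposed to compound for 90 min at 37 C, then chemiluminescence was read after 1 h detection at ambient temperature; DMSO served as basal control.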
row,SMILES,activation
1,Cn1c(=O)c2nc(SCC(=O)Nc3cc(Cl)ccc3Cl)n(C)c2n(C)c1=O,inactive: -4.84%
2,COc1ccc(Cl)cc1NC(=O)N1CCC(CN2CCc3ccccc3C2)CC1,inactive: -11.1%
3,CCOc1ccc(C(=O)NCC(c2ccco2)S(=O)(=O)c2ccc(C)cc2)cc1 (stereo unspecified),inactive: -19.2%
4,COc1cccc(CNC(=O)CSc2ccc(-c3sc(-c4ccccc4)nc3C)nn2)c1,inactive: -6.22%
5,CCc1ccc(NC(=O)CC2C(=O)N(c3cccc(C)c3)C(=O)N2Cc2cccs2)cc1 (stereo unspecified),inactive: -14%
6,Cc1ccc(OCC(=O)Nc2c(C(=O)c3ccccc3)oc3ccccc23)cc1C,inactive: -0.699%
7,CCCCn1c(=O)n(-c2ccc(Br)cc2F)c(=O)c2c3c(sc21)CN(C(C)=O)CC3,inactive: -14.3%
8,CCOC(=O)c1noc2nc(C)n(CC(=O)Nc3cc(Cl)ccc3OC)c(=O)c12,inactive: 3.13%
9,COc1ccc(CNC(=O)Cn2c(SCC(=O)N(C)c3ccccc3)nc3ccccc32)cc1,inactive: 1.74%
10,Cc1csc2nc(COC(=O)c3ccc(NC(=O)COc4ccccc4F)cc3)cc(=O)n12,inactive: -18%
11,Cc1ccc(CNC(=O)C2CCN(S(=O)(=O)N3CCC(C)CC3)CC2)cc1,inactive: -14.2%
12,Oc1c(C(c2ccccc2)N2CCN(Cc3ccccc3)CC2)sc2nc(-c3ccco3)nn12 (stereo unspecified),inactive: -13%
13,CC1=C(C(=O)OCC2CCCCC2)C(c2ccc(F)cc2F)CC(=O)N1 (stereo unspecified),inactive: 13.2%
14,COc1ccccc1CNC(=O)C(=O)NCC(c1cccs1)S(=O)(=O)c1ccc(F)cc1 (stereo unspecified),inactive: -2.24%
15,COc1cc(Cl)c(C)cc1NC(=O)CCc1nc2cccnc2n1-c1ccccc1,inactive: 1.98%
16,NC(=O)NC1N=C([O][Al])NC1=O (stereo unspecified),inactive: -4.73%
17,COc1ccc(NC(=O)Cn2c(SCc3cccc(Cl)c3)nc3ccncc32)c(OC)c1OC,inactive: -14%
18,CC(=O)Nc1nnc(SCc2cc(=O)c3cc(C)ccc3[nH]2)s1,inactive: 36%
19,CC1=C(C(=O)Nc2ccccc2)C(c2ccccc2)n2nc(-c3ccco3)nc2N1 (stereo unspecified),inactive: 6.76%
20,CCn1cc(C(=O)O)c(=O)c2ccc(C)nc21,inactive: 7.11% and inactive: 0.41%
21,CCCCNC(=O)C1CCN(S(=O)(=O)c2cc(Br)cc3c2N(C(=O)CC)CC3)CC1,inactive: -6%
22,Cn1c(=O)cc(SCC(=O)NCc2ccc(F)cc2)c2ccc(Cl)cc21,inactive: 13.5%

row,SMILES,activation
1,COc1ccc(-c2nnc(SCC(=O)Nc3cccc(F)c3)s2)cc1,inactive: 1.85%
2,Cc1ccc(NCc2cccn2-c2nnc(N3CCCCCC3)s2)cc1,inactive: -20.1%
3,CCOc1ccccc1NC(=O)C(C)Sc1cc(-c2ccccc2)nc(C)n1 (stereo unspecified),inactive: -14.8%
4,CCOc1ccccc1NC(=O)CCn1c(-c2ccc(OC)cc2)cc(C(C)=O)c1C,inactive: -12.5%
5,Nc1ncc(S(=O)(=O)NCc2cccc(Cl)c2)cn1,inactive: -1.12%
6,O=C(Cn1c(=O)n2nc(-c3ccccc3)nc2c2ccccc21)Nc1ccccc1C(F)(F)F,inactive: -1.14%
7,Cc1cccc(/C=C/c2ccccc2)n1,inactive: -6.82%
8,CCc1ccc(-n2c(=O)c3c4c(sc3n(Cc3ccc(F)cc3)c2=O)CCCC4)cc1,inactive: 20.6%
9,COc1ccc(CNC(=O)c2cccc(N3CCCS3(=O)=O)c2)cc1,inactive: 26.1%
10,O=C1[C@@H]2CSC(c3ccc(F)cc3)N2C(=O)N1c1ccc(Cl)cc1 (stereo partly specified),inactive: -1.6%
11,O=C(O)CCC(=O)OC[C@@H](NC(=O)C(Cl)Cl)[C@H](O)c1ccc([N+](=O)[O-])cc1,inactive: -16.2%
12,Cc1ccc2oc(=O)c3cnn(CC(=O)NCc4ccccc4Cl)c3c2c1,inactive: 2.73%
13,Cc1ccc(-c2nc(CCNC(=O)C(=O)Nc3ccc(C)c(C)c3)cs2)cc1,inactive: 5.99%
14,Cc1ccc(C)n1-c1nnc(N2CCC(C(=O)NCc3ccccc3Cl)CC2)s1,inactive: -24.2%
15,COc1ccc(S(=O)(=O)N(Cc2nc(-c3ccc(C)cc3)no2)C2CCCCC2)cc1,inactive: -24.5%
16,COc1ccc2cc(CCC(C)=O)ccc2c1,inactive: 30.7%
17,CC(=O)c1cc(-c2ccc(F)cc2)n(CCC(=O)NCc2ccccc2C)c1C,inactive: -9.72%
18,CCCCC12CN3CC(C)(CN(C1)C3c1cc(Br)ccc1O)C2=O (stereo unspecified),inactive: -27.8%
19,COc1ccc(NC(=O)c2ccc3nc(CCc4ccccc4)oc3c2)cc1,inactive: -18.2%
20,Cc1ccc(-c2nc3scc(CCNC(=O)c4cccc(Br)c4)n3n2)cc1,inactive: -9.58%
21,CCOC(=O)CNC(=O)Nc1cc(C(=O)NCc2cccc(F)c2)ccc1N1CCCC1,inactive: -15.3%
22,CS(=O)(=O)c1ccc2nc(NC(=O)CS(=O)(=O)c3ccc(Cl)cc3)sc2c1,inactive: -4.08%

row,SMILES,activation
1,CCCCCC(C)N (stereo unspecified),inactive: -23.5%
2,O=C(NCC(c1cccnc1)N1CCc2ccccc21)c1ccccc1Br (stereo unspecified),inactive: -25.5%
3,Cc1ccc(N2CCN(c3nc4ccc(C)cc4n4nnnc34)CC2)c(C)c1,inactive: -10.1%
4,Cc1ccc(NC2=C(c3ccc(C(F)(F)F)cc3)C(=O)c3ccccc32)cc1F,inactive: -12.3%
5,CCOc1ccccc1NC(=O)CSc1nc2ccccc2c2nc(CCn3cncc3C)nn12,active: 97.2%
6,O=C(Nc1ccc2nc(SCC(=O)N3CCCC3)sc2c1)c1ccccc1,inactive: -6.02%
7,CCOc1cc(C(=O)Nc2ccc(-c3nc4cc(C)ccc4o3)cc2)cc(OCC)c1OCC,inactive: 20.7%
8,COc1cc2c(-c3ccccc3C)nc3c(c(C)nn3-c3ccccc3)c2cc1OC,inactive: -3.41%
9,CCCN(CCC)C(=O)Cn1c(=O)n(-c2cccc(C(F)(F)F)c2)c(=O)c2c(C)c(C)sc21,inactive: 19.9%
10,O=C(Cn1c(=O)n(Cc2ccco2)c(=O)c2cccnc21)Nc1ccccc1F,inactive: -0.298%
11,Cc1ccc(S(=O)(=O)N2CCC(Oc3ccc(-n4cnnn4)cc3)CC2)cc1,inactive: -9.02%
12,COc1ccc(CC(=O)Nc2ccc3nc(Nc4cccc(Cl)c4)cc(C)c3c2)cc1OC,inactive: -2.46%
13,COc1ccc(CNCCSc2nnnn2-c2ccccc2)cc1,inactive: -9.57%
14,COc1ccccc1-n1cc(-c2ccc(C)cc2)nc1S(=O)(=O)CC(=O)Nc1ccccc1C(F)(F)F,inactive: -14%
15,COc1ccc(CCNC(=O)c2ccc3c(c2)N(Cc2cccc(C)c2)C(=O)c2ccccc2S3(=O)=O)cc1OC,inactive: -11.8%
16,CCc1ccc(-n2nnc(-c3nc(-c4ccccc4)no3)c2C)cc1,inactive: -7.87%
17,COc1cc(OC)c(NC(c2nnc(-c3ccccc3)o2)c2ccc(F)cc2Cl)cc1Cl (stereo unspecified),inactive: -26.6%
18,COc1ccc2nc(N(Cc3cccnc3)C(=O)CCc3ccccc3)sc2c1,inactive: -25.1%
19,Cc1ccc(Nc2c3c(nc4nncn24)CCC3)cc1,inactive: -24.5%
20,COc1ccccc1Nc1c2c(nc3ccc(NC(=O)/C=C/c4cccc(OC)c4OC)cc13)CCCC2,inactive: -37.4%
21,O=C(CCCN1CC=C(n2c(=O)[nH]c3ccccc32)CC1)c1ccc(F)cc1,inactive: 47.7%
22,CCn1cc(S(=O)(=O)c2cc(C)cc(C)c2)c(=O)c2cc(F)c(N3CCOCC3)cc21,inactive: -9.98%

row,SMILES,activation
1,COc1ccccc1NC(=O)CSc1nnc(-c2cccc(Cl)c2)o1,inactive: 43.4%
2,CCOc1ccccc1-c1nc(-c2ccc(-c3ccccc3)nc2OCC)no1,inactive: -6.93%
3,Cc1cc(C)cc(-n2cnc3cc(C(=O)NCCc4ccccc4)ccc32)c1,inactive: -29%
4,Cc1ccc(CCNC(=O)CCc2cn(Cc3ccccc3C)c3ccccc23)cc1,inactive: -23.7%
5,COc1cc(NC(=O)Cn2c(SCc3ccc(F)cc3)nc3cccnc32)cc(OC)c1,inactive: -1.22%
6,CCN(C(=O)Cn1c(C(=O)OC)cc2oc3ccccc3c21)c1cccc(C)c1,inactive: -10.9%
7,Cc1ccc(C)c(N(C)C(=O)c2cn(C)c(=O)c3ccccc23)c1,inactive: -23.6%
8,CCOC(=O)c1c(Oc2ccc(C(=O)OC)cc2)nnc(-c2ccccc2)c1-c1ccccc1,inactive: -17%
9,O=C(CNC(=O)c1ccccc1Cl)OCc1cc(=O)n2ccsc2n1,inactive: -10.7%
10,O=C(c1cccc(Cl)c1)n1nc(-c2ccco2)nc1NCc1cccs1,inactive: 7.74%
11,COc1cc(CN(C(=O)c2cc3ccccc3oc2=O)C2CCS(=O)(=O)C2)cc(OC)c1OC (stereo unspecified),inactive: -4.6%
12,Cc1cccc(Cn2c(SCc3ccc(C(=O)N4CCCCCC4)cc3)nc3ccncc32)c1,inactive: -4.38%
13,Brc1csc(CN2CCc3nc(Nc4ccccc4)ncc3C2)c1,inactive: -10.7%
14,Cc1cccc(NC(=O)c2cc(S(=O)(=O)N3CCCCC3)c[nH]2)c1C,inactive: 3.1%
15,CCN(CC)CCNC(=O)c1cc(S(C)(=O)=O)ccc1OC,inactive: -17.9% and inactive: -6.66%
16,O=C(NCCCc1ccccc1)c1nn(-c2ccccc2F)nc1CO,inactive: -24.6%
17,COc1cccc(CNC(=O)c2c(C)nn(-c3cccc(C)c3)c2-n2cccc2)c1,inactive: -9.48%
18,O=C(NCCc1ccccc1)c1ccc(CSc2nc3cccnc3n2Cc2ccc(F)cc2)cc1,inactive: 0.451%
19,Cc1nc(-c2ccc(C)c(N3CCN(C(=O)Nc4ccccc4C(F)(F)F)CC3)c2)no1,inactive: -6%
20,CC(=O)c1ccc(NC(=O)C2CCC(CNS(=O)(=O)c3ccc(Br)s3)CC2)cc1 (stereo unspecified),inactive: -1.33%
